Reference: the supplement of paper PMC11417369
± gives the standard deviation of the averaged measurements. The list shows a part of the results.

Tested on: PfAP2-EXP AP2 domain (GST-tagged)
Assay: gcPBM binding intensity (ln(normalized median fluorescence intensity)); higher = stronger DNA binding
Method in brief: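 Using an Agilent 4 × 180k array, primer-extended double-stranded 36-bp intergenic genomic probes and negative controls were exposed for 1 h to GST-fused P. falciparum DNA-binding domains expressed in E. coli. Binding was carried out in 1× PBS with 1% milk, 0.2 mg/ml BSA, 0.5% salmon testes DNA and 0.03% Triton X-100, and protein was detected with Alexa488 anti-GST antibody and a 488 nm scan. Binding intensity is the highest Masliner-normalised natural-log median intensity across replicate spots of either probe orientation.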

Sequence | gcPBM binding intensity (ln)
AGACCTTTAATTTGTGTGCACATAATTAGTGTACAT [GTGCAC_site9434] | 9.22 ± 0.42
TTCAAATTGTTTATATGTACTTATAAAAATTGTCTG [XGTACX_site977] | 8.35 ± 0.42
ACAAATAAAAATATTACACACACTATTATATTGATA [CACACA_site1494] | 8.38 ± 0.43
TTATATTATATATATGTGCACATTTTTAAACTTGGA | 8.71 ± 0.27
AAATATTTATATGTTACACACTGTTGATAATTTTCT [CACACA_site1347] | 8.34 ± 0.54
GGAAGATGAAAAATAAAGCATGTGCTGTACAAACGA [CACACA_negctrl_site1625] | 8.96 ± 0.49
ACTTATTTCGATATGTGTACTTAATATATATATTTA [XGTACX_site6616] | 8.68 ± 0.32
AAAAATATTTTGGTTTGTACATATATTTTTACAATA [XGTACX_site8691] | 8.51 ± 0.45
ATTTTTGTAATTATTTGTACACATTTATTTATGTGT [XGTACX_site1864] | 8.68 ± 0.33
TTTTTTTTTTTTTCAAGTACATAACTTACCCCTTTT [XGTACX_site6207] | 8.53 ± 0.42
TTATATGCATAAAAACGTACAAAAATGTATTCATGT [XGTACX_site2215] | 8.71 ± 0.38
GTTATAGAAGCATTCACACACACACCCACATACACA [CACACA_site1465] | 8.94 ± 0.68
TTACATAATATATGTACACACGCAAATACTTAGAAT [CACACA_site320] | 8.72 ± 0.38
GAATGTTAACGTTGCACACAAAAAAAAAGTATACAT [CACACA_site2415] | 8.81 ± 0.58
AAACGATTACTGTGTACACACATAGTTATAAACATA [CACACA_site5195] | 8.62 ± 0.33
AGGATATGCAGACACACACACATATATATATATATA [CACACA_site2201] | 10.3 ± 0.41
TTTTTTAATAATAGGAAAATGAATATTATATCGAAT [TGCATGCA_negctrl_site543] | 8.42 ± 0.34
TTATATATTTATATTTGTACGTATAAATTTTTTTTT [XGTACX_site2833] | 8.45 ± 0.32
ATATATGTGTATGTATGTACTCATTTTTGTATATAT [XGTACX_site490] | 8.42 ± 0.28
AAACAAAGAAAGAACACACATACACAATATACCTAC [CACACA_site2835] | 8.81 ± 0.63
ATAATGATATATTATAAACACACAAAGATGAATATA [CACACA_site8914] | 8.57 ± 0.4
TATTTTGAAAAAGTTGCACACAAAATTTAAAAAAAA [CACACA_site8470] | 8.36 ± 0.39

Sequence | gcPBM binding intensity (ln)
CATTTAAATTATAAGTGTACACGATCATATTTCATC [XGTACX_site349] | 8.89 ± 0.5
TATATATATATATATGTACACACATATATACCTTTC [CACACA_site8854] | 10.2 ± 0.26
AAATAAAAACATAACAGTACAGTTAACATTTTTATA [XGTACX_site3479] | 8.29 ± 0.35
CCAACATTTTTTAGAAGTACATTTTTATATTTATTA [XGTACX_site5179] | 8.31 ± 0.26
TGTAATAATCTTACATGTACATACATATATTATATA [XGTACX_site4012] | 8.7 ± 0.32
AGGTACTTTTTTAAAACACACATATAATATATACAC [CACACA_site1065] | 8.63 ± 0.3
GATGGAAGGTGAAAGCGTACTTATTATAGTAATATA [XGTACX_site303] | 8.71 ± 0.47
TACATTCATGTGTATTGTACAAACTATTTTATAATA [XGTACX_site7744] | 8.49 ± 0.45
ACAATCCTAACGACATGTACAAATATATATATTTTT [XGTACX_site7335] | 8.55 ± 0.56
TACATATTTTTTATGTGTACATATTTTTTATGTGTA [XGTACX_site443] | 8.27 ± 0.16
GCATATTTTATAATTTTACACACCATATAAAATAAT [CACACA_site8904] | 8.77 ± 0.43
TATATAATATATATAGTGCATAAGTTCAAAAGAATA [GTGCAC_site9805] | 8.64 ± 0.13
TATATTTATTTATACACATGCATATTTTAAGGGCTC [TGCATGCA_site885] | 8.72 ± 0.4
ATTTATTTATTTATTTGTACATATAAATATATCAAA [XGTACX_site7383] | 8.46 ± 0.18
AGTATACAGATATATACACACATATATTTATTTATA [CACACA_site6279] | 8.29 ± 0.46
CATATAATTATATATCGTACATATTAATATAATTAC [XGTACX_site401] | 8.55 ± 0.33
AAAGATGTTATATATATGTATATATATATGTAATAT [TGCATGCA_negctrl_site386] | 8.29 ± 0.33
AGATATAGGAAAATAATATATATATATTTTTTTTTT [CACACA_negctrl_site461] | 8.06 ± 0.42
ATATATATATATATATGTACTTATAAGGTATATTTA [XGTACX_site3327] | 10 ± 0.59
AAAAAAAAATAAATAAATATATATAATATTTATGTT [GTGCAC_negctrl_site520] | 8.1 ± 0.37
TTATAATCCATAATTGCACACAATATATTCATATTT [CACACA_site3916] | 8.54 ± 0.2
AATATACAATAAAGGTGTACACATATATGATGCAAG [XGTACX_site7607] | 9.22 ± 0.43
